The source of these data is PMC2666074 (Biochemistry, 2008).

The assay has as its target S100A6 (rabbit, intact) (rabbit, UniProt P30801). The assay is described as follows: ITC.

B1: SIP M207A (full length) (natural protein)
chain: not shown
Turning to B1, the “fold reduction in binding affinity against wild-type SIP” value is above 10 fold.
